Measured values from PMC4336329 (PLoS ONE, 2015).
The campaign covered roughly 310,000 compounds. About 2,200 (0.71%) showed an effect of 50% or more. The effect is printed as a negative number. The list shows a part of the results.

Each compound was assayed against human ether-à-go-go-related gene (hERG) potassium channel (human, UniProt Q12809) (assay: primary screen, population patch clamp on CHO cells stably expressing hERG).
Chain of human ether-à-go-go-related gene (hERG) potassium channel (Q12809 whole entry, looked up): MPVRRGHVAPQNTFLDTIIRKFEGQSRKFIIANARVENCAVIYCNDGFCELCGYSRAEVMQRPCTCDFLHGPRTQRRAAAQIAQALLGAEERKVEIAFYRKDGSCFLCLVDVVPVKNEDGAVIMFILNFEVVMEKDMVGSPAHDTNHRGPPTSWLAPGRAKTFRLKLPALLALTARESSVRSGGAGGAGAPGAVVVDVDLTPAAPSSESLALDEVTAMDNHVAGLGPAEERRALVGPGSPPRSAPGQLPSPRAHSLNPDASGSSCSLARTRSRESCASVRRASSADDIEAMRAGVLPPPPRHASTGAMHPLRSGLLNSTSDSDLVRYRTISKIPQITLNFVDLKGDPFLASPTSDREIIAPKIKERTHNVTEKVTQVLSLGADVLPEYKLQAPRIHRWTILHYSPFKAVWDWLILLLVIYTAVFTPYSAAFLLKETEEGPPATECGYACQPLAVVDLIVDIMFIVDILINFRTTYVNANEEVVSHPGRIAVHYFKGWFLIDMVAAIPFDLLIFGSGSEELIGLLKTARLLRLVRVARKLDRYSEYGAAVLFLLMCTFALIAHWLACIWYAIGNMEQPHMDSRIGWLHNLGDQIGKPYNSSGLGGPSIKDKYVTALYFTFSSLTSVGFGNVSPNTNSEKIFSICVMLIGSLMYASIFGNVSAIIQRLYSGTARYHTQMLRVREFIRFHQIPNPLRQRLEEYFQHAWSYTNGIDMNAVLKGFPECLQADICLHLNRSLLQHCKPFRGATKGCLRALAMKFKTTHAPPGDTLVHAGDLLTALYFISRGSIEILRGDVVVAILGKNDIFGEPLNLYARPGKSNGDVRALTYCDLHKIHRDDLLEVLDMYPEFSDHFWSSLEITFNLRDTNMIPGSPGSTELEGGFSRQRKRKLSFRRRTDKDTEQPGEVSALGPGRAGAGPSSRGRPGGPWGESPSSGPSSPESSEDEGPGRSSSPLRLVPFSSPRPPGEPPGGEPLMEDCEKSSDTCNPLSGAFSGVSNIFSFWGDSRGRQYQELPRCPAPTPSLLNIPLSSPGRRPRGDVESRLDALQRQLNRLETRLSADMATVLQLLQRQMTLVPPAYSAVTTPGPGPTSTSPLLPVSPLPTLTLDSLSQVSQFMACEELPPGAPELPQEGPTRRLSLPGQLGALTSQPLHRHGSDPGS

| SMILES | hERG current change (%, negative = inhibition) at 1uM [%] |
| --- | --- |
| Cc1cc(NC(=O)CSCC(=O)N(c2ccc(F)cc2)C(C(=O)NC2CCCCC2)c2ccc(O)c(O)c2)no1 (stereo not drawn) | 3.34 |
| COc1ccc2c(CC(=O)NC3CCCc4ccccc43)coc2c1 (stereo not drawn) | 15.1 |
| COc1cc(CCC(=O)NCc2ccc(Cl)cc2)cc(OC)c1OC | 8.77 |
| CCCCC(=O)N1CC2(C)CN(C(=O)CCCC)CC(C)(C1)C2=O | -13.6 |
| O=C(COC(=O)c1cc(Cl)ccc1O)Nc1ccc2c(c1)OCCO2 | 11 |
| O=C(N/N=C/c1ccoc1)c1ccccc1F | 13.3 |
| NC(=O)CC1SC(N)=NC1=O (stereo not drawn) | 3.76 |
| Cc1ccc(/C=N/NC(=O)c2ccncc2)s1 | 18.3 |
| Cc1nn(Cc2ccc(Cl)cc2)c(C)c1NC(=O)c1noc2c1CCc1ccccc1-2 | 5.11 |
| COc1cc(C(=O)Nc2sc3c(c2C(=O)O)CCC(C)C3)cc(OC)c1OC (stereo not drawn) | 12.9 |
| Cc1ccc(-c2cc(N)nc(-c3ccccc3)c2)cc1 | 12.7 |
| CC(C)CN1C(=O)C(=O)N(CC(=O)N(C)CC(=O)Nc2ccc(Cl)c(C(F)(F)F)c2)C1=O | -3.13 |
| CCOC(=O)C1(CCc2ccccc2)CCN(Cc2ccn[nH]2)CC1 | -43.8 |
| CC1CCN(C(=O)c2cc3c(=O)n4ccccc4nc3s2)CC1 | 8.96 |
| CC(C)Cn1cc(C(=O)N2CCOCC2)c2c3ccccc3n(C)c2c1=O | -17.7 |
| O=C1/C(=C\c2ccc([N+](=O)[O-])cc2)N2CCC1CC2 | 0.363 |
| CCCC(=O)Nc1nnc(S(=O)(=O)N2CCCC2)s1 | 16.4 |
| Cc1ccc(CN2C(=O)CSC2c2ccc(F)cc2)cc1 (stereo not drawn) | 12.2 |
| CCOC(=O)C1CCN(Cc2ccc(F)cc2F)CC1 | 18.9 |
| Cc1ccc(CNC(=O)C(=O)c2cn(CC(=O)N3CCCC3)c3ccccc23)cc1 | 12.5 |
| O=c1o[nH]c(-c2ccccc2)c1C1=NCCCCC1 | 6.62 |
| CCN(CC)S(=O)(=O)c1ccc(NC(=O)c2ccccc2N(C)S(C)(=O)=O)cc1 | -0.512 |
| O=C(CCn1c2c(c3ccccc31)CCCC2)NNC(=O)c1cccc([N+](=O)[O-])c1 | 12.5 |

| SMILES | hERG current change (%, negative = inhibition) at 1uM [%] |
| --- | --- |
| COc1ccc(NS(=O)(=O)c2cccc(C(=O)NNC(=O)CNC(=O)c3ccco3)c2)cc1 | 15.6 |
| COc1ccc(-c2ccc(/C=C(\NC(=O)c3ccccc3)C(=O)N3CCOCC3)o2)cc1 | -0.841 |
| CCc1ccc(/C(C)=N/NC(=O)c2c[nH]c3ccccc23)s1 | 16.6 |
| CC1=NN(c2nc(-c3ccc(C)cc3)cs2)C(=O)C1N=Nc1ccccc1O (stereo not drawn) | 9.36 |
| Cn1cnc2c(oc3ccccc32)c1=O | 13.6 |
| CCCNC(=S)N1CCCC(c2nc3ccccc3[nH]2)C1 (stereo not drawn) | 13.6 |
| Fc1cccc(CCN2CCN=C2Nc2ccccc2)c1 | -5.72 |
| CCOc1ccc(NC(=O)NCc2ccco2)cc1 | 15.4 |
| C=CCc1cc(OC)ccc1OCCOCCC(C(=O)OCC)C(=O)OCC | 5.46 |
| Cc1ccc(N(C(=O)CNC(=O)c2ccco2)C(C(=O)NC2CCCC2)c2ccncc2)cc1F (stereo not drawn) | -0.584 |
| CCN(CC)c1nc(C)nc2c1cnn2CCc1ccccc1.Cl | 10.2 |
| COC(=O)c1sc(N2C(=O)c3oc4ccccc4c(=O)c3C2c2cccc(O)c2)nc1C (stereo not drawn) | 5.01 |
| COc1ccccc1CNC(=O)C1CC(c2ccccc2F)=NO1 (stereo not drawn) | 1.18 |
| O=C(NC(=S)Nc1ccc2c(c1)OCCO2)c1cccc2ccccc12 | 4.58 |
| O=C(Nc1ccc(N2CCN(C(=O)c3ccc(Cl)cc3)CC2)cc1)c1ccc2c(c1)OCCO2 | 0.171 |
| COc1cc(C(=O)N2CCN(c3cccc(C)c3C)CC2)cc(OC)c1OC | 2.77 |
| O=C(O)C1CCCN1S(=O)(=O)c1cc(Cl)ccc1Cl (stereo not drawn) | 7.21 |
| CCN(CC(=O)NCc1cccs1)C(=O)c1cccc(S(=O)(=O)Nc2ccc(C)cc2)c1 | 8.65 |
| COc1ccc(S(=O)(=O)Nc2cccc(S(=O)(=O)NC3=NCCC3)c2)cc1[N+](=O)[O-] | 13.2 |
| CC(=O)Nc1cc2c3c(c1)CCN3C(=O)CC2 | 22.9 |
| CCOc1ccc(CC(=O)NNC(=S)NCCc2ccccc2)cc1 | 9.01 |
| O=C(CCNS(=O)(=O)c1cccc2nsnc12)N1CCN(c2ccccn2)CC1 | 1.62 |
